Measurements taken from the supplement of paper PMC11417369.
This is one part of the list.

System: PfSIP2 AP2 domain 1 (GST-tagged)
Assay: gcPBM binding intensity (ln(normalized median fluorescence intensity)); higher = stronger DNA binding
Outline: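 Binding of GST-tagged P. falciparum DNA-binding domains, expressed in E. coli and used at about 25 μg on average, was carried out for 1 h in 1× PBS containing 1% milk, 0.2 mg/ml BSA, 0.5% salmon testes DNA and 0.03% Triton X-100. The target was an Agilent 4 × 180k array of primer-extended double-stranded 36-bp intergenic genomic probes plus negative controls, read with Alexa488 anti-GST antibody at 488 nm. Binding intensity is the highest Masliner-normalised natural-log median intensity across replicate spots of either probe orientation.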

Sequence | gcPBM binding intensity (ln)
TTTTTTTTTTTTTTATGTACACATCTAAAAAAAAGG [XGTACX_site2067] | 7.43
GCCCCCTAAAAAATTACACACGAAAAAAATGAATTT [CACACA_site9128] | 8.47
TAAGTATAAAAAAATAGTACAATTATGAAATATCGT [XGTACX_site2529] | 7.14
GGTCTAACAACATGCGCACACACATGAATATTCATA [CACACA_site1539] | 8.12
TTTAACAAGTTAAACACACATACATATATACATATA [CACACA_site2536] | 6.87
TATAAAAATATATATATATATATATATATAATATGT [TGCATGCA_negctrl_site85] | 7.59
TTAAAAAAAAAACACACACACATACCCATATATATA [CACACA_site5768] | 7.38
ATTTGTTCCTTGGGAGTTTACTTTTTTTTAATTTTA [CACACA_negctrl_site638] | 6.88
TTCTTTTTAATTAATACACACACACCCATATATATA [CACACA_site8719] | 7.57
AACAAAATTGAAGGAACACACATACATATTTATATA [CACACA_site6227] | 6.78
AAAAAATTAGATTATGCACACACACTAATAAATAAT [CACACA_site8604] | 8.7
TTTATTTAAGAAAAATGTACAGGTTCATTTCATAAT [XGTACX_site27] | 6.86
CATATAAATACATGCACACAAAAATATCAATACATT [CACACA_site2392] | 7.25
ATAAATACATATGTGTGTACACATTATATATATATA [XGTACX_site1486] | 9.06
GAAAAATTAAAACCTACACACACATTTAAAAAAAAA [CACACA_site9005] | 6.88
TATATATTACATACATGTACCCAAAAAAAAAAAAAA [XGTACX_site1168] | 7.02
ATATATATATAATCATCACACATGCAGCCCTGATGA [CACACA_site5500] | 8.79
GAATGAATACGTTTTACACACTTGAATCTAATTTCA [CACACA_site6593] | 6.89
ATTCTACTTTTATTTATTTATTTGTTTATATATATA [XGTACX_negctrl_site609] | 7.69
TTTTTTATTCATGTAACACACATTTAATTATGAATT [CACACA_site2706] | 6.97
GTGTAGATATTGAAATGTACTCTCCATATAAAATAA [XGTACX_site4713] | 7.07
AAAGAATTTGCATATACACACAAAAAAATATATACA [CACACA_site386] | 6.87

Sequence | gcPBM binding intensity (ln)
ATATATATATATATATGTACTTATTTATTTATATTA [XGTACX_site4646] | 9.67
TTACGATACTTTAGGTGTACACAAATATACATGAAT [XGTACX_site4322] | 7.54
TATAAATATAAATATACACACATATATATATATATA [CACACA_site1678] | 9.45
TTGCATTAATTTATGTGTACATATAAATTTTTATTT [XGTACX_site3060] | 7.41
CTTATAGGTCATTTCCTTGACCCCCTTTGTTGTACT [CACACA_negctrl_site551] | 7.24
ATCAGTCGGCAGGACAGTACACAGTAGCCAGAAAAT [XGTACX_site2550] | 6.84
TTATAAATAAAAAATACACACATATATTTATTTATA [CACACA_site6242] | 6.87
ATAATATATGAAAGTGGTACACAAAGGAAAATAAAA [XGTACX_site333] | 7.04
TGTAGTCTGGAGAAAAGTACACAGTATCCGGTAACT [XGTACX_site4934] | 6.85
AATAATAAATCAAACTGTACATATATTTTCAATCTA [XGTACX_site3344] | 7.01
TTTTTTTTTTTGTTCACACATATATATATATATATA [CACACA_site5376] | 9.22
TTCTTCTAATCCTTTTATCTCATTAAAAAAATATAA [CACACA_negctrl_site12] | 7.57
TATACATACACATACACACATACACCCATACACATA [CACACA_site1746] | 7.24
GGTTATATATTTTTTGCACACCAAAAAAGAGAATAT [CACACA_site2731] | 7.69
ATCCTAATATTGAACTGTACCTTATATGTTATTATA [XGTACX_site1014] | 7.12
TATATATATATATATACACACATATATACATATATA [CACACA_site4043] | 9.36
GGATATAACAAACACACACACACATATATATATATT [CACACA_site4141] | 7.22
AATACATATAATACAACACACAAGTAATATAAACCT [CACACA_site3597] | 7.03
TTTAAATGAAAAAAAGGTACACAATATTATTCTTAT [XGTACX_site8612] | 6.98
AAAAAAAAAAAACACACACACACACTAGTATATAAA [CACACA_site4783] | 7.26
AAGAAAAAAAAAAATATATATACATATATATATATA [TGCATGCA_negctrl_site485] | 9.11
AATACTTATTATGAAACACACACCAAAACTACATAA [CACACA_site270] | 7.17

Sequence | gcPBM binding intensity (ln)
AATGTATATATATATATATATATATATATTTATTTA [CACACA_negctrl_site113] | 7.65
AAGAAAATAGAAAATACACACAGCAAACAGAGGAAT [CACACA_site3785] | 7.09
ATATATATATATTTATGTACATATATTTTTTTTTTT [XGTACX_site8558] | 8.71
AATAAATAAATACATCTCAGTATATAAACAAACAAA [CACACA_negctrl_site1604] | 6.99
ATATTTAATTAAAAGAGTACTTAAATAAAATAAATG [XGTACX_site2149] | 6.95
AAGCCTTAAAAGGAAAGTACGTATATATATATATAT [XGTACX_site8559] | 9.41
ATGAAACATGTATATTGTACTCTGGATCAATTTAAT [XGTACX_site6413] | 7.16
AAATTTATTATATATACATGCAATCATAAATAATGT [TGCATGCA_site539] | 7.04
AAAAAGGATAAACACACACACACACCGATATATATA [CACACA_site8206] | 7.42
TTATTTTTGTGTAAGGTGCTATATATAATGTTTTTA | 8.24
AAATGTGATATAAGTACACACACATATGTATATATA [CACACA_site8539] | 7.18
AACGAAATCATCAAGTGTACTAGTTTATTATTAATA [XGTACX_site6161] | 6.79
TATGTATATTATATGACACACATTTATATATATATA [CACACA_site1167] | 9.22
AATAAATAAATAAATATATATATATATATATATATG [CACACA_negctrl_site899] | 7.69
TTTTGTTGATTTATATCTGTAGGGTTTAATATAACA [XGTACX_negctrl_site174] | 7.01
AAAATAAAATAAAACACAAAAAAATAAAACAAAATA [CACACA_negctrl_site16] | 7.11
TATATATCCATGTGTACACACAAAAAAAAATAAAGT [CACACA_site7107] | 7.63
AAATATGTTTATATATGTACTTATAATTCAAAATAT [XGTACX_site2167] | 7.01
TCTATGCGTTTTAATAGTACATATAAAATTTATACA [XGTACX_site6986] | 7
AAATAAAATATATACATATATATATTATTTAGTAAT [XGTACX_negctrl_site375] | 6.91
CCATGTCACAATTTTTCACACACAAAATTTATATAC [CACACA_site8628] | 7.39
ATATACACACATAAGTGTACTTATATTTCATATATA [XGTACX_site8646] | 6.9

Sequence | gcPBM binding intensity (ln)
TAATTAACAAACTATAGTACACAAAATACTTCATAT [XGTACX_site6375] | 7.12
TTAACTATGAATACATGTACATGAAAATATTTCAAT [XGTACX_site1069] | 6.9
GGCAAATTTATTATACCCACATACATACATACATAC [XGTACX_negctrl_site186] | 8.07
AAATTAATAAAAAATGGTACACAAAATGGATGTATA [XGTACX_site1561] | 7.05
AAAATTAAACAAAGTTGTACAAAATAATAATAAAAG [XGTACX_site7515] | 7.23
TTTATATTAATTGATGTGCACTGAAATATTTGTCCA [GTGCAC_site9655] | 10.2
ACCCTATAGGTAACTACACACCGCATATTGTTTACT [CACACA_site7436] | 7.01
ATATAAAAAAATTGCACACATAAATATATACATATA [CACACA_site1218] | 7.41
GATACATAGAAACACACACACATACATATATACATA [CACACA_site3438] | 7.04
TCACAAAAAGAACATTGATATTATTATAAAATCGTC [GTGCAC_negctrl_site177] | 6.87
TTTATGTACAGACATATACACACCTCTATAATATAT [CACACA_site730] | 7.18
AATTATATATTAAAAAGTACAAGTTAATATAATATA [XGTACX_site2737] | 7.12
TATTGTAATATTATATATATCTATTATGTATATAAA [CACACA_negctrl_site454] | 6.85
TAATTAAAATTATTTATAAATTAGTATATTTCTATA [CACACA_negctrl_site663] | 6.71
TTATTATTTTATCGTAGTACACCTAAATTATAAAAC [XGTACX_site5251] | 7.18
TTACAAAAATTTTGTTCACACATAAAAATATGTTAC [CACACA_site5740] | 6.85
ATATATTTTTCAAAATGTACAAATAATTAAATACCA [XGTACX_site875] | 7.08
TAATAAATTATTTTTTATTATTTTAATAACACTTCA [CACACA_negctrl_site3] | 6.62
GTTAGCATATTAAGTTGTACACAATTATTCTTCAAT [XGTACX_site8324] | 7.22
TGGTATTTTGATGATAAAAGGAAATTTTTTTTATAC [XGTACX_negctrl_site111] | 6.84
AACAAAGAAAATACATGTACAAAAAATATTAACGAA [XGTACX_site287] | 7.22
AATATAATATAATGCACACATAAACAAAAAAAAAAA [CACACA_site783] | 7.35
